Assay results reported in PubChem BioAssay AID485297 (National Center for Advancing Translational Sciences (NCATS), 2010).
Screen size: about 320,000 compounds; about 9,100 (2.8%) were called active. Inconclusive results, whose numbers are uncertain, are shown with a selection of clear calls. Calls come from the whole dose curve; as a rule, active = well fitted activation curve with a large enough effect; inconclusive = small, poorly fitted or top-dose-only effect; inactive = no such curve, though single readings can be large or run the other way. No potency is given beside an inconclusive call; the fits are too rough.

Experiment: qHTS Assay for Rab9 Promoter Activators; note: nearly all actives have a fitted effect of over 60% in size; for activation, negative = inhibition: % of control where 0% means no effect
Conditions: Huh7 Rab9 promoter-luciferase reporter, luminescence, 24 h; series mostly up to 9.22 µM
In short: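 Luminescence read-out: Huh7 cells stably expressing Rab9-luciferase, treated 24 h with compound at 37 °C, then lysed with luciferase reagent for 10 min at ambient before reading.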
Potency is the fitted concentration of half-maximal effect; tags give direction and shape of the fitted curve.

Q: Which Potency does the source give for `Cc1cccc(NC(=O)Cc2noc3ccccc23)c1` here?
A: Its Potency is inconclusive [activator, single point].

Q: With `CCC(=O)CCC(=O)c1ccc2ccccc2c1` as the compound, how does the Potency read?
A: The Potency was inconclusive [activator, single point].

Q: For `CCOc1ccc(/C=C2\CCC(C3CCCC3)C2=O)cc1` (stereo not given), which Potency is on record?
A: Its Potency is active: 3.98 µM.

Q: With `COc1ccc(OCc2cc(C(=O)N(C)Cc3cc(C4CC4)n[nH]3)no2)c(Cl)c1` as the compound, how does the Potency read?
A: The Potency was active: 2.82 µM.

Q: For `COc1ccc(N/C=C(\C#N)c2nc3ccccc3n2C)c(OC)c1`, which Potency is on record?
A: The Potency was “inactive”.

Q: With `COc1ccc(NC(=O)c2ccccc2NC(=O)c2ccccc2)cc1` as the compound, how does the Potency read?
A: Its Potency is “inactive”.

Q: For `Nc1ccc2nc(-c3ccccn3)[nH]c2c1`, which Potency is on record?
A: The Potency was inconclusive [activator, single point].

Q: Which Potency does the source give for `COc1ccc(-c2cnc3c(-c4ccc(F)cc4)cnn3c2N)cc1` here?
A: Its Potency is active: 0.316 µM.

Q: Which Potency does the source give for `COc1cccc(NC(=O)COc2cc(O)c3c(c2)OC(C)(C)CC3=O)c1` here?
A: The Potency was inconclusive [activator, partial curve].

Q: For `c1ccc(OCCSc2nnc3sc4ccccc4n23)cc1`, which Potency is on record?
A: Its Potency is active: 0.316 µM.

Q: Which Potency does the source give for `Cc1ccc(-n2[nH]c(C)c(/C=N/Nc3ccc([N+](=O)[O-])cc3[N+](=O)[O-])c2=O)cc1` here?
A: The Potency was “inactive”.

Q: With `CCN(c1ccccc1)S(=O)(=O)c1cc([N+](=O)[O-])ccc1N` as the compound, how does the Potency read?
A: The Potency was inconclusive [activator, partial curve].

Q: With `NC(=O)Cn1cnc2nc3n(c2c1=O)CCC3` as the compound, how does the activation, negative = inhibition read?
A: Its activation, negative = inhibition is inactive: -4.01% [at 1.84 µM].

Q: For `Cc1ccccc1-n1c(C)cc(/C=C(\C#N)C(=O)NCC2CCCO2)c1C` (stereo not given), which Potency is on record?
A: The Potency was inconclusive [activator, single point].

Q: Which Potency does the source give for `CCCc1nc(NCc2ccc3c(c2)OCO3)c2nnn(Cc3ccccc3Cl)c2n1` here?
A: The Potency was inconclusive [activator, single point].

Q: With `COc1ccc(OC)c(N/C=C/C(=O)c2ccccc2)c1` as the compound, how does the Potency read?
A: The Potency was inconclusive [activator, partial curve].

Q: With `Cn1c(N)c(C(=O)COC(=O)COc2ccccc2Cl)c(=O)n(C)c1=O` as the compound, how does the Potency read?
A: Its Potency is “inactive”.

Q: For `Cc1ccc(NC(=O)Nc2cnccn2)c(C)c1`, which Potency is on record?
A: Its Potency is inconclusive [activator, single point].

Q: With `COc1ccc(S(=O)(=O)n2nc(OCc3cccs3)cc2N)cc1` as the compound, how does the Potency read?
A: The Potency was “inactive”.

Q: Which Potency does the source give for `COc1ccnc(N2CCN(c3ccccc3)CC2)c1C#N` here?
A: The Potency was inconclusive [activator, single point].

Q: For `O=C(NC1CC1)c1scc2c1OCCO2`, which Potency is on record?
A: The Potency was “inactive”.

Q: For `COc1ccc(C(=O)Nc2nnc(-c3ccccc3)s2)cc1`, which Potency is on record?
A: Its Potency is active: 1.26 µM.

Q: With `CCOCC(=O)Nc1cc(C(=O)Nc2ccc(F)cc2)ccc1Cl` as the compound, how does the Potency read?
A: Its Potency is inconclusive [activator, single point].

Q: With `Cc1ccc2[nH]c3c(c2c1)CC/C(=C/c1ccccc1)C3=O` as the compound, how does the Potency read?
A: Its Potency is inconclusive [activator, partial curve].

Q: Which Potency does the source give for `O=S(=O)(Nc1ccc(-c2nc3cccnc3s2)cc1)c1ccc(Cl)s1` here?
A: The Potency was inconclusive [activator, partial curve].

Q: For `Cc1cccc(NC(=O)c2cc(-c3ccc(C)c(C)c3O)n[nH]2)c1`, which Potency is on record?
A: Its Potency is inconclusive [activator, partial curve].

Q: Which Potency does the source give for `CCc1cccc(NC(=O)CS(=O)Cc2nc(-c3ccc(C)cc3)oc2C)c1` (stereo not given) here?
A: Its Potency is “inactive”.

Q: With `CCC(=O)Nc1cccc(NC(=S)NC(=O)c2ccccc2C)c1` as the compound, how does the Potency read?
A: The Potency was inconclusive [activator, partial curve].

Q: With `CCn1c(C)nc2cc(C(=O)N/N=C/c3ccccc3C)ccc21` as the compound, how does the Potency read?
A: Its Potency is active: 1.12 µM.

Q: Which Potency does the source give for `Oc1cc(NCc2cccnc2)ccc1-c1nc2ccccc2o1` here?
A: Its Potency is inconclusive [activator, full curve].

Q: Which Potency does the source give for `O=C1c2cccc3cccc(c23)C(=O)N1CCc1ccccc1` here?
A: Its Potency is inconclusive [activator, single point].

Q: Which Potency does the source give for `Cc1sc2ncnc(N=Nc3c(O)[nH]c4ccccc34)c2c1C` here?
A: The Potency was inconclusive [activator, single point].

Q: For `Nc1[nH]n(-c2ccccc2)c(=O)c1N=Nc1ccc2c(c1)OCO2`, which Potency is on record?
A: Its Potency is active: 3.16 µM.

Q: Which Potency does the source give for `O=C(NC1CCCCC1)c1ccc2c(c1)OCO2` here?
A: Its Potency is inconclusive [activator, partial curve].

Q: For `C[C@@H]1CC[C@@]23COC(=O)C2=CCC[C@@H]3[C@@]1(C)CC/C(=C/CO)CO`, which Potency is on record?
A: Its Potency is “inactive”.

Q: With `CCOC(=O)CC1COCCN1C(=O)c1ccc2oc(Cc3ccccc3)nc2c1` (stereo not given) as the compound, how does the Potency read?
A: The Potency was active: 3.16 µM.

Q: Which Potency does the source give for `Cc1cccc(N2CCN(C(=O)CSCc3c(C)noc3C)CC2)c1C` here?
A: Its Potency is “inactive”.

Q: For `Cc1ccc(NC(=O)c2ccc(-n3cccn3)c([N+](=O)[O-])c2)cc1C`, which Potency is on record?
A: The Potency was inconclusive [activator, single point].

Q: For `CCN(CC)c1ccc(NC(=O)C2=CC=CN3CCS(=O)(=O)N=C23)cc1`, which Potency is on record?
A: The Potency was inconclusive [activator, single point].

Q: Which Potency does the source give for `C=CCOc1ccc2c(c1)C(=NO)c1cc(OCC=C)ccc1-2` here?
A: Its Potency is “inactive”.

Q: With `NC(=O)Nc1ccccc1C(=O)NCCc1ccccc1` as the compound, how does the Potency read?
A: Its Potency is inconclusive [activator, partial curve].

Q: For `O=C(N/N=C/c1ccc(Br)s1)c1ccco1`, which Potency is on record?
A: The Potency was inconclusive [activator, single point].

Q: Which Potency does the source give for `CC(=O)n1cc(/C=N/NC(=O)c2sc(C)nc2C)c2ccccc21` here?
A: Its Potency is inconclusive [activator, partial curve].

Q: For `COc1ccc(-c2csc(NC(=O)C3=COCCO3)n2)cc1OC`, which Potency is on record?
A: The Potency was inconclusive [activator, partial curve].

Q: Which Potency does the source give for `CCN(CC)C(=O)CSc1nnc(-c2ccccc2)o1` here?
A: The Potency was active: 3.55 µM.

Q: Which Potency does the source give for `O=C(OCC(=O)c1c[nH]c2ccccc12)C1=COCCO1` here?
A: The Potency was active: 3.55 µM.

Q: Which Potency does the source give for `COc1ccc(-c2cc(C(=O)N3CCCc4ccccc43)no2)cc1` here?
A: Its Potency is inconclusive [activator, single point].

Q: With `Cc1ccccc1NC(=O)C(=O)Nc1ccccc1C` as the compound, how does the Potency read?
A: Its Potency is active: 0.891 µM.

Q: For `Cc1ccc2c(C(=O)CN3CC(C)CC(C)C3)c(C)[nH]c2c1` (stereo not given), which Potency is on record?
A: Its Potency is “inactive”.

Q: For `COc1ccc(-c2cc(C(=O)N/N=C/c3ccc4c(c3)OCO4)c3ccccc3n2)c(OC)c1`, which Potency is on record?
A: The Potency was “inactive”.

Q: With `Clc1cc(NCc2cccs2)ccc1N1CCOCC1` as the compound, how does the Potency read?
A: The Potency was inconclusive [activator, partial curve].

Q: For `Cc1cc(C(=O)COC(=O)c2n[nH]c(=O)c3ccccc23)c(C)n1C(C)C`, which Potency is on record?
A: The Potency was inconclusive [activator, partial curve].

Q: Which Potency does the source give for `CCOC(=O)N1CCC(Nc2ncnc3c2cnn3-c2ccc(Cl)cc2)CC1` here?
A: The Potency was inconclusive [activator, single point].

Q: Which Potency does the source give for `COc1ccccc1C(=O)/C=C/c1ccc(N2CCCCC2)c([N+](=O)[O-])c1` here?
A: Its Potency is inconclusive [activator, single point].

Q: With `Cc1ccc2nc(=O)c(NNc3ccccc3)cnc2c1` as the compound, how does the Potency read?
A: The Potency was inconclusive [activator, single point].

Q: With `O=C(O)c1cccc(Nc2ccnc(Nc3cccc(C(=O)O)c3)n2)c1` as the compound, how does the Potency read?
A: Its Potency is inconclusive [activator, single point].

Q: Which Potency does the source give for `CC(=O)Nc1ccccc1C(=O)C(=O)Nc1ccccc1` here?
A: The Potency was inconclusive [activator, partial curve].

Q: With `CCCC(=O)N1CCCC(c2nc(-c3cccc(OC)c3)no2)C1` (stereo not given) as the compound, how does the Potency read?
A: Its Potency is active: 1.41 µM.

Q: With `Cn1c(COc2ccccc2)nc2ccccc21` as the compound, how does the Potency read?
A: The Potency was inconclusive [activator, partial curve].

Q: With `O=C(NCCCc1ccccc1)c1cnc2n(c1=O)CCS2` as the compound, how does the Potency read?
A: Its Potency is inconclusive [activator, partial curve].

Q: For `CCOC(=O)C1C(=O)CC(C)(O)C(C(=O)OCC)C1c1ccc(C)s1` (stereo not given), which Potency is on record?
A: The Potency was inconclusive [activator, partial curve, poor fit].

Q: Which Potency does the source give for `COc1cc(CC2COC(c3ccc(O)c(OC)c3)C2COC(C)=O)ccc1O` (stereo not given) here?
A: Its Potency is “inactive”.

Q: Which Potency does the source give for `O=C(Cn1nnc2ccccc21)NNC(=O)c1ccccc1` here?
A: Its Potency is “inactive”.

Q: With `Cc1cc(C)c(S(N)(=O)=O)c(C)c1-n1cnnn1` as the compound, how does the Potency read?
A: The Potency was inconclusive [activator, single point].

Q: With `CC(=O)N/C(N)=N/c1nc2cc([N+](=O)[O-])ccc2o1` as the compound, how does the Potency read?
A: Its Potency is active: 3.16 µM.

Q: For `Cc1cc(=O)[nH]c(N/N=C/c2ccc3c(c2)OCCO3)n1`, which Potency is on record?
A: Its Potency is inconclusive [activator, single point].

Q: Which Potency does the source give for `Cc1nc(N=Nc2ccc(S(=O)(=O)O)cc2S(=O)(=O)O)c(COP(=O)(O)O)c(C=O)c1O` here?
A: The Potency was inconclusive [activator, single point].

Q: Which Potency does the source give for `Cc1ccccc1C(=O)NC(=S)Nc1ncccn1` here?
A: The Potency was inconclusive [activator, single point].

Q: Which Potency does the source give for `N#Cc1nc(-c2ccc(Cl)cc2)oc1NCCc1ccccn1` here?
A: The Potency was inconclusive [activator, partial curve].

Q: Which Potency does the source give for `Cc1nonc1NC(=O)c1oc2ccc(F)cc2c1C` here?
A: The Potency was inconclusive [activator, single point].

Q: With `CCCCOc1cccc(C(=O)Nc2ccc(NC(=O)c3cccs3)cc2)c1` as the compound, how does the Potency read?
A: Its Potency is “inactive”.

Q: With `O=C(NC(=S)Nc1cccnc1Cl)c1ccc(F)cc1` as the compound, how does the Potency read?
A: The Potency was inconclusive [activator, partial curve].

Q: For `O=C(NC1CCCCCC1)C(=S)NCc1ccccc1`, which Potency is on record?
A: The Potency was inconclusive [activator, partial curve].

Q: With `Cn1c(CCN2CCCCCC2)nc2cc(NC(=O)Nc3ccccc3)ccc21` as the compound, how does the Potency read?
A: Its Potency is inconclusive [activator, single point].

Q: For `CN(C)c1ccc(/C=C2\C(=O)Nc3ccccc32)cc1`, which Potency is on record?
A: The Potency was active: 3.66 µM.
